Assay results: patent US7018641B1, “Materials and methods for the control of plant pathogens” (priority 2000, dated 2006)

What was measured:
Assay in all cases: Greenhouse test, tomato in pathogen-infested soil treated before planting
Settings in all cases: in words
Phytophthora capsici = test system: Phytophthora capsici
Athelia rolfsii = format: in vivo
[1] = test system: Fusarium oxysporum f. sp. lycopersici
Pythium aphanidermatum = test system: Pythium aphanidermatum

Measured: infection of tomato roots and subsequent root rot

CC(C)=CCC/C(C)=C/CO [Geraniol, geraniol]
reduced or eliminated: all assays above
